Laboratory results as given in the supplement of paper PMC7826260.
The list shows a part of the results. Viral Rep nickase domains cut single-stranded DNA in vitro (1 h at 37 °C, 3 µM enzyme); the outer parts of the 90-letter strands are left off. The score is log2 (uncut reads / reads without enzyme); strong cutting gives strongly negative numbers. There is no active / inactive call. The scaling is to total reads; uncut strands gain when others are lost, and binding without cutting may add a little.

Experiments:
Test in all cases: uncleaved DNA left, log2 of reads against the no-enzyme library (log2 ratio); higher = less cleavage (more negative = more Rep cleavage of the k-mer); sequences stand for … in CTCGTCCG…ACCGGAGA
[1] = system: T1, Rep nickase domain of Muscovy duck circovirus
T1 sequence (residues 1-111, tag not shown): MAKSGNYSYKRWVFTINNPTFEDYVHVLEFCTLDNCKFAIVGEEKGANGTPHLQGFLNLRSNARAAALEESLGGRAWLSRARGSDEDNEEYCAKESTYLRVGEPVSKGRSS
Method: (§1)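 A pool of 90-nt single-stranded DNAs with seven random bases just before the constant AC of the nick site (name = the seven bases) was cut by 3 µM recombinant His6-SUMO-tagged Rep nickase domain (300 nM DNA, 50 mM HEPES pH 8.0, 50 mM NaCl, 1 mM MnCl2, 1 h, 37 °C, three replicates). Uncut DNA was amplified and sequenced.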

[2] = system: T2, Rep nickase domain of banana bunchy top virus
T2 sequence (residues 1-94, tag not shown): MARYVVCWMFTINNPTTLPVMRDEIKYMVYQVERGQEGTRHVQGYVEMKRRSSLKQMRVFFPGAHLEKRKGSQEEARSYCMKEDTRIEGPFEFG
Method: as §1

[3] = system: T3, Rep nickase domain of cabbage leaf curl virus
T3 sequence (residues 1-116, tag not shown): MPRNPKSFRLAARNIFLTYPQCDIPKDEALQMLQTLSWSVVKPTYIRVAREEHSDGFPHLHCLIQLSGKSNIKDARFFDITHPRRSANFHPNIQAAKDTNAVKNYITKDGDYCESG
Method: as §1

[4] = system: T4, Rep nickase domain of chickpea chlorotic dwarf virus
T4 sequence (residues 1-124, tag not shown): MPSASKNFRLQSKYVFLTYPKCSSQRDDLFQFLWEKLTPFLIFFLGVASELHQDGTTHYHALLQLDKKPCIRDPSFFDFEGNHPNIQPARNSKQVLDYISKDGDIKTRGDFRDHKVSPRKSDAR
Method: as §1

[5] = system: T5, Rep nickase domain of faba bean necrotic yellows virus
T5 sequence (residues 1-98, tag not shown): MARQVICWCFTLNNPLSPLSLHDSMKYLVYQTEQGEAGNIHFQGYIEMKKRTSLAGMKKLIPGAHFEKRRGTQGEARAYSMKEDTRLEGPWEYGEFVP
Method: as §1

[6] = system: T6, Rep nickase domain of maize striate mosaic virus
T6 sequence (residues 1-117, tag not shown): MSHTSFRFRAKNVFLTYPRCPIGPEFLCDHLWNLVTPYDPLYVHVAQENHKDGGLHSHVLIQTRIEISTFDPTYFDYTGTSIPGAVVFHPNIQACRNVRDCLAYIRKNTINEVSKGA
Method: as §1

[7] = system: T7, Rep nickase domain of porcine circovirus 2
T7 sequence (residues 2-116, tag not shown): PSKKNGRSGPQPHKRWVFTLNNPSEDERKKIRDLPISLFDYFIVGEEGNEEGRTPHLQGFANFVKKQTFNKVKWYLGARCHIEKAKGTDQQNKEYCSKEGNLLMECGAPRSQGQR
Method: as §1

[8] = system: T8, Rep nickase domain of tomato golden mosaic virus
T8 sequence (residues 1-124, tag not shown): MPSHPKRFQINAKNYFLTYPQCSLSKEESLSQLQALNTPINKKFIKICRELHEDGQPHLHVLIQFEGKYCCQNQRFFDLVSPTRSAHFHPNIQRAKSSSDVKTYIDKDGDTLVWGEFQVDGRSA
Method: as §1

[9] = system: T9, Rep nickase domain of tomato yellow leaf curl virus
T9 sequence (residues 1-136, tag not shown): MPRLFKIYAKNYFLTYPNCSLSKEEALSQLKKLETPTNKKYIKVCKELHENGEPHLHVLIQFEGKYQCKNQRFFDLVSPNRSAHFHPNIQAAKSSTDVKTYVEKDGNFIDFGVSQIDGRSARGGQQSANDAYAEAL
Method: as §1

[10] = system: T10, Rep nickase domain of wheat dwarf virus
T10 sequence (residues 1-137, tag not shown): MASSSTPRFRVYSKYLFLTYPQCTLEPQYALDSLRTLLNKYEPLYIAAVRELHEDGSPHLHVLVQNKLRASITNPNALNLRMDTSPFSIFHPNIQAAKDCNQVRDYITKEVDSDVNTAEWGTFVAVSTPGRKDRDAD
Method: as §1

Sequence | uncleaved DNA left (log2) [1] | uncleaved DNA left (log2) [2] | uncleaved DNA left (log2) [3] | uncleaved DNA left (log2) [4] | uncleaved DNA left (log2) [5] | uncleaved DNA left (log2) [6] | uncleaved DNA left (log2) [7] | uncleaved DNA left (log2) [8] | uncleaved DNA left (log2) [9] | uncleaved DNA left (log2) [10]
TAGCCCC | -0.118 | -0.0803 | -0.0468 | -0.197 | -0.0797 | 0.033 | -0.654 | -0.299 | -0.00708 | 0.024
GTCACGG | 0.0699 | 0.0861 | 0.653 | 1.53 | 0.0643 | 2.21 | 0.154 | 0.177 | 0.0727 | 0.124
CTACCGT | -0.112 | -0.0812 | -0.506 | -1.76 | -0.132 | -0.96 | -0.389 | -0.121 | -0.249 | -0.214
AAAGCCC | -0.0726 | -0.0162 | -0.0206 | -0.244 | 0.00911 | -0.448 | 0.0123 | 0.0177 | -0.142 | 0.0611
TTTGTAC | -0.0781 | -0.0673 | -0.0446 | -0.606 | -0.0785 | -0.667 | -0.114 | -0.0807 | -0.034 | -0.0319
GCCGGTG | -0.0682 | -0.177 | -0.309 | -0.185 | -0.1 | -0.261 | 0.00766 | -0.151 | -0.144 | -0.132
TGATCAT | -0.0238 | 0.114 | 0.643 | 1.13 | -0.0217 | 1.66 | 0.0492 | -0.0882 | 0.135 | 0.156
AGGGACC | 0.0122 | 0.172 | 0.634 | 1.63 | -0.0217 | 1.88 | 0.173 | 0.0973 | 0.134 | 0.124
TTGTTTC | -0.0263 | -0.234 | -0.00631 | -0.128 | -0.253 | -0.424 | -0.194 | -0.268 | -0.0507 | -0.27
ATCAGCG | -0.000352 | -0.02 | -0.401 | 1.09 | 0.0435 | 0.241 | 0.0716 | -0.0835 | -0.0449 | -0.146
GAAATGA | -0.0306 | 0.00955 | 0.254 | 0.439 | 0.00312 | 0.37 | 0.0874 | -0.0242 | 0.0111 | -0.0617
GACTCCG | 0.0071 | 0.0439 | -0.69 | -0.729 | 0.0473 | -1.06 | 0.0643 | 0.0607 | -0.0965 | -0.116
GAACACT | 0.0676 | 0.141 | 0.15 | -1.98 | 0.159 | 1.32 | 0.0638 | 0.00186 | 0.124 | 0.106
GCTCTAA | 0.0367 | 0.152 | 0.133 | 0.617 | -0.0189 | 0.464 | 0.067 | 0.079 | 0.125 | 0.0754
TCGTGGC | -0.0668 | -0.162 | -0.204 | -0.565 | 0.00325 | -0.868 | -0.0854 | -0.165 | -0.0649 | -0.227
CATATGC | -0.0312 | -0.0411 | -0.743 | -0.772 | -0.0238 | -1.47 | 0.0583 | -0.2 | 0.00502 | -0.175
GGGCTCG | 0.221 | 0.127 | 0.544 | 1.14 | 0.0229 | 1.26 | 0.241 | 0.0793 | 0.0496 | 0.189
CTATCCA | -0.0271 | 0.182 | 0.0437 | -0.968 | 0.136 | -0.371 | 0.0899 | 0.0495 | 0.256 | 0.182
ATCGGTG | 0.0589 | -0.0976 | -0.429 | -0.364 | 0.0524 | -0.803 | 0.16 | -0.081 | 0.0407 | -0.000246
GGGAACC | -0.0508 | 0.045 | 0.69 | 1.83 | -0.148 | 2.09 | 0.063 | -0.0684 | -0.0434 | 0.084
CAGAATC | 0.087 | 0.102 | 0.0475 | -0.178 | -0.0274 | -0.334 | -0.0829 | 0.0492 | -0.0458 | -0.042
CCTGGGC | 0.00757 | -1.58e-05 | 0.0739 | 0.109 | 0.102 | -0.32 | 0.0977 | 0.0703 | -0.0669 | -0.00763
TCGCGAG | 0.0935 | 0.0339 | 0.0432 | 0.17 | -0.168 | -0.719 | 0.115 | -0.0501 | 0.0679 | 0.000901
AGCCCCA | -0.0381 | -0.0126 | 0.523 | 1.05 | -0.142 | 1.62 | -0.0842 | -0.0601 | -0.104 | 0.0493
ATAGACC | -0.033 | 0.181 | 0.0979 | 0.483 | 0.0671 | 0.21 | 0.0814 | 0.0547 | 0.0282 | 0.062
AGGAGAG | 0.0758 | 0.108 | -0.135 | 0.298 | 0.063 | -0.426 | 0.301 | 0.0899 | 0.0723 | 0.0549
TCCGTAG | 0.0207 | 0.124 | -0.337 | -0.295 | -0.179 | -0.814 | 0.0337 | -0.0414 | -0.00927 | -0.113
TACACGG | 0.0722 | 0.138 | 0.576 | 1.57 | 0.0519 | 1.97 | 0.159 | 0.205 | 0.0378 | 0.226
GCGTAAC | -0.09 | -0.098 | -0.208 | -0.216 | -0.165 | 0.101 | -0.0454 | 0.00796 | -0.119 | 0.00519
ATATTCG | 0.0505 | 0.107 | -0.74 | 0.502 | 0.165 | -0.774 | 0.179 | 0.0188 | 0.149 | -0.136
